{
  "source": "PubChem BioAssay (NCI)",
  "tested_on": "MDA-MB-468 breast",
  "experiment": "NCI anticancer screen, dose series, 48 h",
  "note": "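Test compounds were applied to cells in 96-well plates for 48 hours at 5 doses. GI50 is the concentration that inhibits growth by half.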 For part of its entries the source gives two or more results. The other results are left out here. The source may hold further records. The tests behind the records often covered other concentration ranges, which the source does not state; a value can be the end of its range.",
  "data": [
    {"compound": "COC(=O)[C@@H](C)C[C@H](Cc1ccccc1)NC(=O)c1csc([C@@H](C[C@H](C(C)C)N(C)C(=O)[C@@H](NC(=O)[C@H]2CCCCN2C)C2CC2)OC(C)=O)n1", "values": [
      {"measurement": "GI50", "value": "0.13 nM and 1.65 nM"}
    ]}
  ]
}
